{"source": "patent US10344037B2", "about": "“Use of the FL-one hundred eighteen core chemical structure platform to generate FL-one hundred eighteen derivatives for treatment of human disease” (priority 2014, dated 2019)", "key": {"ABCG2 in HCT116-A2 cells": {"system": "ABCG2 in HCT116-A2 cells", "type": "cell-based, human", "settings": "72 hours, Ko143 1 μM", "procedure": "Cell numbers are then counted at each drug concentration used. […] Cell numbers at each dot is the mean±SD derived from 3 independent assays. Data are plotted graphically and EC50 values are calculated using GraphPad Prism 6.0.\nABCG2 positive HCT116-derived colon cancer cells (HCT116-A2) grown at sub-confluence are treated with a series of concentrations of topotecan in triplicate for 72 hours in the presence or absence of Ko143 at 1 μM concentrations as shown. Cell numbers are then counted at each topotecan concentration used. […] Cell numbers at each dot is the mean±SD derived from 3 independent assays. Data are plotted graphically and EC50 values and R-values are calculated using GraphPad Prism 6.0.\nClinically, development of resistance to irinotecan and topotecan occurs commonly during treatment, often involving the upregulation of ABCG2. By increasing the rate of drug export, ABCG2 decreases the amount of SN-38, irinotecan or topotecan that accumulates intracellularly, thereby protecting cancer cells from the cytotoxic effects of these chemotherapeutic drugs."}, "SW620 tumor": {"system": "SW620 tumor", "assay": "Oral FL118 in SW620 xenograft"}, "[1]": {"system": "RC0.1 (DU145-RC0.1) cells", "assay": "Cell growth inhibition, DU145 sub-line with Top1 mutation", "type": "cell-based, human", "settings": "Top1 mutated RC0.1 and RC1 cell lines", "text": "Each dot is the mean±SD derived from 3 independent assays.\nIrinotecan and topotecan are the only two analogs derived from direct modification of camptothecin (CPT) that are approved by the FDA for cancer treatment in clinical practice. […] In this regard, we obtain one DU145 parental prostate cancer cell line and two DU145-derived sub-lines with Top1 mutations (DU145-RC0.1, DU145-RC1)."}, "[2]": {"system": "p21, DHFR, HTR and TK gene promoters", "assay": "Control gene promoter activity", "type": "cell-based, human", "settings": "FL118 at 10 nM"}}, "data": [{"compound": "CC[C@@]1(O)C(=O)OCc2c1cc1n(c2=O)Cc2cc3cc4c(cc3nc2-1)OCO4", "note": "[FL118]", "values": [{"measurement": "effect of ABCG2 inhibitor Ko143 on potency", "setting": "ABCG2 in HCT116-A2 cells", "value": "Ko143 does not modulate the potency of FL118"}, {"measurement": "lowest dose showing efficacy", "setting": "SW620 tumor; q7d×4", "value": "≤ 0.625", "unit": "mg/kg"}, {"measurement": "SW620 tumor growth", "setting": "SW620 tumor; q7d×4, versus saline or vehicle control", "value": "significant inhibition of SW620 tumor growth"}, {"measurement": "dependence of FL118-induced HdmX degradation on p53 or p21", "setting": "HdmX; HCT116-p21-null or HCT116-p53-null cells, 10 and 100 nM, 24 h", "value": "not affected by p53 or p21 status"}, {"measurement": "dependence of FL118-induced HdmX degradation on ATM", "setting": "HdmX; HCT-8 cells, 100 nM, with ATM inhibitor KU55933 10 μM", "value": "ATM-independent process"}, {"measurement": "dependence of FL118-induced HdmX degradation on Hdm2", "setting": "HdmX; p53/mdm2/mdmx triple knockout (TKO) MEF cells transfected with HA-HdmX with or without Hdm2", "value": "presence of Hdm2 in HdmX-co-transfected cells is required"}, {"measurement": "more effective than CPT, SN-38 and topotecan", "setting": "[1]", "value": "up to 800 folds"}, {"measurement": "promoter activity of p21, DHFR, HTR and TK genes", "setting": "[2]", "value": "no inhibitory effects"}]}]}
